In PubChem BioAssay (NCI):
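48-hour exposure; five concentrations; linearly interpolated endpoints. GI50: concentration for 50% inhibition of growth. TGI denotes the concentration required for complete inhibition of growth.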

test system: NCI-H322M lung; assay: growth of human tumour cells (NCI), 48 h

Row | Structure (SMILES) | GI50 | TGI
1 | CC(=O)[O][Hg][c]1ccccc1 | 1.52 µM | 3.02 µM
2 | CCC[CH2][Sn]([CH2]CCC)([O]C(=O)C1CCC(=O)N1)[O]C(=O)C1CCC(=O)N1 (centres undefined) | 1.34 µM | 2.62 µM
3 | C/C(Cc1ccc(Cl)cc1)=C(/c1ccc(Cl)cc1)c1ccc(OCCN(C)C)cc1 | 5.04 µM | 9.7 µM
4 | O=[N+]([O-])c1ccc2ncccc2c1Cl | 7.68 µM | 24.3 µM
5 | CCS(=O)(=O)CCn1cnc2c1c(=O)n(C)c(=O)n2C | – | > 100 µM
6 | CCC1CCc2nc3sc(C(=O)Nc4ccccc4C)c(N)c3cc2C1 (centres undefined) | > 100 µM | > 100 µM
7 | NC(=O)/C=C/NC(=O)/C=N\O | – | > 100 µM
8 | CN(C)c1n/c(=N/c2ncn[nH]2)ss1 | – | > 100 µM
9 | N#CC1(C=O)c2ccccc2C=CN1C(=O)c1ccccc1 (centres undefined) | – | > 100 µM
10 | N#Cc1ccc(C(c2ccc(C#N)cc2)n2cncn2)cc1 | > 5000 µM | > 5000 µM
11 | c1ccc(COCC2OC3c4ccccc4COC3C2OCc2ccccc2)cc1 (centres undefined) | – | > 100 µM
12 | CCc1nc(N)nc(N)c1-c1ccc(NCCc2ccccc2)c([N+](=O)[O-])c1 | – | > 44.4 µM
13 | Nc1nc(N)c2nc(CNc3ccc(C(=O)NC(CCCNC(=O)c4ccccc4C(=O)O)C(=O)O)cc3)cnc2n1 (centres undefined) | – | > 100 µM
14 | CS(=O)(=O)CCNCc1ccc(-c2ccc3ncnc(Nc4ccc(OCc5ccccc5)c(Cl)c4)c3c2)o1 | 0.854 µM | > 25 µM
15 | O=C(CCCCCCSc1nc(-c2ccc(Cl)cc2)cc(-c2ccc(Cl)cc2)n1)NO | 1.61 µM | > 50 µM
16 | Cc1ccc(S(=O)(=O)NC(=O)Nc2ccc(S(N)(=O)=O)cc2S(N)(=O)=O)cc1 | – | > 100 µM
17 | CCCCn1sc(=O)n(Cc2ccc(CNC(=O)OCc3ccc4c(Br)cc(Br)c(O)c4n3)cc2)c1=O | 2.4 µM | > 100 µM
18 | CSc1ccc(/C=C/c2ccnc3ccccc23)cc1 | – | 32.9 µM
19 | COc1cccc2[nH]c(-c3ccccn3)nc12 | – | > 100 µM
20 | COc1ccc(-c2cc(-c3cc(OC)c(OC)c(OC)c3)c(C#N)c(N3CCOCC3)n2)cc1O | > 26.1 µM | > 100 µM
21 | Cc1nc(Nc2ccc([N+](=O)[O-])cc2)sc1C(/C=C/c1ccc(N(C)C)cc1)=N/NC(=O)c1ccccc1 | – | > 100 µM
22 | CCc1nc(Cl)nc(Cl)c1Cl | – | 10.1 µM

Row | Structure (SMILES) | GI50 | TGI
23 | C=CC(C)CCC(C/C=C(\C)CCC=C(C)C)C(=C)CCCC(C)C (centres undefined) | – | > 100 µM
24 | CCCSC1=NC2C(N(CC)C(=O)N2CC)N1/N=C/C=C/c1ccccc1[N+](=O)[O-] (centres undefined) | 8.73 µM | > 100 µM
25 | CSc1nc2[nH]c(=O)c(C)nc2c(=O)[nH]1 | – | > 100 µM
26 | Cc1cc(NS(=O)(=O)c2ccc(Nc3c4ccccc4nc4ccc(C(=O)Nc5ccc(S(N)(=O)=O)cc5)cc34)cc2)no1 | – | > 100 µM
27 | CCCCCCCCCCCCOC1C(CNC(=O)C2OC3OC(C)(C)OC3C2NC(=O)CN2CCCCCC2)OC2OC(C)(C)OC21 (centres undefined) | 8.4 µM | 23.4 µM
28 | O=C([O-])c1ccc(C(=O)[O-])cc1.O=C([O-])c1ccc(C(=O)[O-])cc1.[Mo+2].[Mo+2] | > 100 µM | > 100 µM
29 | COc1ccc([C@@]23OC[C@@H]4[C@@H](OC[C@@H]42)c2cc(OC)c(OC)cc23)cc1OC | – | > 100 µM
30 | NNc1[nH]c(=S)[nH]c1C(N)=O | – | > 100 µM
31 | COc1ccc2c(c1)[n+](=O)c(C(=O)/C=C/c1cc(OC)c(OC)c(OC)c1)c(C)n2[O-] | 27.7 µM | > 100 µM
32 | COc1ccc(-c2ccc(/C=N/n3c(C)nn(CN4CCN(C)CC4)c3=S)o2)c([N+](=O)[O-])c1 | 38.3 µM | > 100 µM
33 | COc1ccc(Cn2cc3c(c2-c2cc(OC)c(OC)c(OC)c2)CCc2cnoc2-3)cc1[N+](=O)[O-] | 3.45 µM | > 100 µM
34 | COc1cc2nc3cc([N+](=O)[O-])ccc3c(NCCCNCC(C)(C)O)c2cc1OC | 0.255 µM | 0.833 µM
35 | CCCCC#CC#Cc1cccc(=O)o1 | 16.4 µM | 44.5 µM
36 | O=C1c2scc(-c3ccc(Cl)cc3)c2-n2cccc21 | – | > 100 µM
37 | C[C@H]1C(Oc2ccc(O)cc2)OC2OC3(C)CCC4[C@H](C)CCC1C24OO3 (some centres undefined) | 16.3 µM | 31.1 µM
38 | CC(=O)OC1CC2C(C)(C)C(=O)C=CC2(C)C2CCC3(C)C(c4ccoc4)OC(=O)C4OC43C12C (centres undefined) | – | > 100 µM
39 | Nc1c(C(=O)Nc2ccccc2F)sc2nc3c(cc12)C(=O)CCC3 | > 29.5 µM | > 100 µM
40 | Cc1ccsc1/C=N/Nc1nncc2ccccc12 | – | > 100 µM
41 | Cn1c(=S)c2[nH]c(SCCN3CCCC3)nc2n(C)c1=O | – | > 100 µM
42 | Cc1ccc(S(=O)(=O)Cc2nc(-c3ccc(C(=O)NCc4cccnc4)cc3)oc2C)cc1 | > 100 µM | > 100 µM
43 | COc1cc(O)c2c(=O)cc(C3(O)C=CC(=O)C=C3)oc2c1 | – | 8.32 µM
